Where “and” joins values, the source holds several entries; their conditions need not be identical. Equal values may be shown once. Inconclusive results, whose numbers are uncertain, are shown with a selection of clear calls. Potencies beside an inconclusive call are fits to weak or partial responses and may not hold up. Calls of active or inactive are those of the source. The call rests on the fitted dose curve; in most records, active means well fitted curve in the direction sought with a large enough effect; inconclusive means small, poorly fitted or top-dose-only effect, or another doubt; inactive means no such curve, though single readings can be large; an effect the other way counts as inactive or inconclusive.
Experiments:
[1] = biological target: Phospholipid hydroperoxide glutathione peroxidase GPX4 (Homo sapiens) (UniProt P36969); test: Primary qHTS Assay for Inhibitors of Recombinant Selenoprotein Glutathione Peroxidase 4 (GPX4) (AID 1845192); further: nearly all actives have a fitted effect of over 65% in size
Chain of UniProt P36969 (P36969 whole entry, looked up): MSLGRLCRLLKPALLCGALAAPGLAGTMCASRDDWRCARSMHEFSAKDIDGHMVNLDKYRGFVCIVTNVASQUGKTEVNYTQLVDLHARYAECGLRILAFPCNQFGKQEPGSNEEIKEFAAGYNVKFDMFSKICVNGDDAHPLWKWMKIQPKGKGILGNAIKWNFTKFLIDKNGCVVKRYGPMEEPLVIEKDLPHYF
Procedure, shortened: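 NADPH consumption followed by fluorescence at 340/450 nm, t=0 and after 15 min at room temperature. Reaction started with cumene hydroperoxide (0.5 mM final) after 30 min compound–GPX4 preincubation; final 200 nM GPX4, 100 nM GR, 1 mM GSH, 0.5 mM NADPH.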

[2] = Quantitative High-Throughput drug screen in 47 multiple myeloma cell lines against the NCATS MIPE library collection: Delta47_JCRB cell viability assay (AID 1918925; further: nearly all actives have a fitted effect of over 45% in size); details: Delta47 myeloma viability, CellTiter-Glo ATP, 48 h; series mostly up to 45.8 µM
Procedure, shortened: (§1)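 Approved and investigational drugs from MIPE 4.0 were added by pin tool to 500 cells per well. After 48 hours at 37C, ATP-based CellTiter-Glo luminescence indicated remaining viability.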

[3] = Quantitative High-Throughput drug screen in 47 multiple myeloma cell lines against the NCATS MIPE library collection: EJM_DSMZ cell viability assay (AID 1918926; further: nearly all actives have a fitted effect of over 30% in size)
Procedure, shortened: as §1

[4] = Quantitative High-Throughput drug screen in 47 multiple myeloma cell lines against the NCATS MIPE library collection: FR4_PLB cell viability assay (AID 1918924; further: nearly all actives have a fitted effect of over 35% in size)
Procedure, shortened: as §1
Potency means the concentration at half of the fitted maximal effect; tags describe the fitted curve by direction and shape.

## CN(Cc1cnc2nc(N)nc(N)c2n1)c1ccc(C(=O)N[C@@H](CCC(=O)O)C(=O)O)cc1
[1]
  Potency: inconclusive: 20.2 µM [inhibitor, single point] and inconclusive: 22.7 µM [inhibitor, partial curve]
[2]
  Potency: inconclusive: 2.96 µM [cytotoxic, full curve, poor fit]
[3]
  Potency: inconclusive: 18.7 µM [cytotoxic, partial curve]

## CC(C)C[C@H](NC(=O)[C@@H](O)[C@H](N)Cc1ccccc1)C(=O)O
[1]
  Potency: inconclusive: 35.5 µM [inhibitor, single point]
[4]
  Potency: inconclusive: 29.6 µM [cytotoxic, single point]
[3]
  Potency: inconclusive: 16.6 µM [cytotoxic, partial curve]

## CC(C)(O)CC(=O)NCCn1ccc2ncnc(Nc3ccc(Oc4cccc(C(F)(F)F)c4)c(Cl)c3)c21
[1]
  Potency: inconclusive: 32.1 µM [inhibitor, partial curve, poor fit]
[3]
  Potency: active: 1.87 µM

## Cc1ccc(S(=O)(=O)Nc2cc(Cl)ccc2C(=O)Nc2nc(-c3ccccc3)cs2)cc1
[1]
  Potency: inconclusive: 0.36 µM [inhibitor, full curve, poor fit]
[3]
  Potency: inconclusive: 16.6 µM [cytotoxic, partial curve]

## CCc1cc(Nc2nccc(-c3c(-c4ccc(OC)c(C(=O)Nc5c(F)cccc5F)c4)nc4ccccn34)n2)c(OC)cc1N1CCC(N2CCN(S(C)(=O)=O)CC2)CC1
[1]
  Potency: inconclusive: 6.4 µM [inhibitor, partial curve, poor fit]
[4]
  Potency: active: 20.9 µM

Reference: PubChem BioAssay (NCATS)
